± gives the standard deviation of the averaged measurements. Some of the results follow.
system: PfAP2-I AP2 domain 3 (GST-tagged); assay: gcPBM binding intensity (ln(normalized median fluorescence intensity)); higher = stronger DNA binding
Outline: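 Binding intensity values are the highest Masliner-normalised natural-log median intensity among replicate spots of either probe orientation. The binding step lasted 1 h in 1× PBS with 1% milk, 0.2 mg/ml BSA, 0.5% salmon testes DNA and 0.03% Triton X-100, using GST-tagged P. falciparum DNA-binding domains expressed in E. coli on an Agilent 4 × 180k array of primer-extended double-stranded 36-bp intergenic genomic probes plus negative controls. Alexa488 anti-GST antibody and a 488 nm scan detected bound protein.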

| Sequence | gcPBM binding intensity (ln) |
| --- | --- |
| ATAATAATATATACATGTACATATATATATATATAT [XGTACX_site3455] | 9.12 ± 0.39 |
| AAATATTTATAAATTGCACACAAATAATAACATTAT [CACACA_site8737] | 8.47 ± 0.099 |
| AAATAAAAAGTAAAGCGTACAAATGATCAAATAATA [XGTACX_site7898] | 7.91 ± 0.59 |
| TAATCAACAAAATCTACACACTAAAATGAAATATAA [CACACA_site3749] | 7.58 ± 0.72 |
| TATAAATAGATATATACACACTTGTGCAGAATATTA [CACACA_site7112] | 9.37 ± 0.099 |
| AGAAGTGTAAAAGTTACACACACAAACTTGTCATTT [CACACA_site4613] | 7.66 ± 0.61 |
| CCCAGGTGCTCGTAACGTACTTACATCAAATATTAT [XGTACX_site4617] | 8.71 ± 0.23 |
| AGGCGTGAAATATACGTACACACATTATTTATATTT [CACACA_site2558] | 7.99 ± 0.3 |
| CATATTAAAAATACATGTACATATATATTTAATATA [XGTACX_site8580] | 7.74 ± 0.26 |
| AACCTCAAATACACAAGTACGTATAATAAGGAACAA [XGTACX_site4304] | 7.87 ± 0.43 |
| GTTAAAATAATATTATGTACATATATATAAAAATAT [XGTACX_site8512] | 7.96 ± 0.34 |
| GTTTGTAAATATTTTACACACATATTTATTTATATA [CACACA_site6632] | 7.61 ± 0.66 |
| TATAAATATGTGTTTACACACAATAATGAATTAAAA [CACACA_site6555] | 7.49 ± 0.5 |
| ATGGAAAAATGTATATATAAAATAAATATATTATAT [CACACA_negctrl_site1712] | 7.49 ± 0.63 |
| AATATACACATTGTGAAATAACAAAAAAGGCAAAAA [CACACA_negctrl_site1014] | 7.87 ± 0.77 |
| CCTATTTATATATACACACACATATATAAATAAATA [CACACA_site2991] | 8.09 ± 0.32 |
| AATAAAAAGATATTCTCCTTGTTCCTTTTTTTTAAA [CACACA_negctrl_site1147] | 7.83 ± 0.64 |
| TATATATATGTATGATGTACATATATGCATATATAT [XGTACX_site3399] | 8.14 ± 0.8 |
| TTAATTAAATATTATACACACAAAAAAATAATTTTA [CACACA_site96] | 7.57 ± 0.6 |
| ATATATATTCATAATACACACATTCTGTAGCATTAT [CACACA_site2067] | 8.01 ± 0.69 |
| ATAGTATCTGGTAGCTGTACGAATGGTAGAGAGTAG [XGTACX_site2548] | 8.62 ± 0.45 |
| ATATATATATTAAAGGTGCACAAATAAATATATACA [GTGCAC_site9532] | 11.54 ± 0.035 |

| Sequence | gcPBM binding intensity (ln) |
| --- | --- |
| ATATTTTTTTTCTTCACACACATGAATTATATATAA [CACACA_site3216] | 8.27 ± 0.49 |
| AATCTATATTGACACACACACAAAAAAAAAAAAAAA [CACACA_site6739] | 7.95 ± 0.43 |
| ATTTTAACCAATTATTGTACTTGGTTATTCTTTTTT [XGTACX_site7453] | 7.46 ± 0.66 |
| AAATTATTGAAATACGCATGTGTTTTTTTTTTTTTT [TGCATGCA_site391] | 8.05 ± 0.47 |
| AATATTACGTCTGGACGTACAAATCTTTTTCGTGTC [XGTACX_site6644] | 7.74 ± 0.59 |
| GAAATATTTTGTTGTGCATGCGACATTAAATAAAAA [TGCATGCA_site331] | 8.22 ± 0.68 |
| TTTTACTAGATATATACACACATTATACCTATAGAT [CACACA_site7530] | 7.81 ± 0.72 |
| ACATTTTTTTTTTTTTTTTTTTTCTTACATCATGCA [CACACA_negctrl_site1413] | 8 ± 0.58 |
| ATATAAAGGTTTATTAGTACACATTAGAATACTTTT [XGTACX_site4492] | 7.75 ± 0.47 |
| CATATTAGGACAAAGTGTACATATATATATATATAT [XGTACX_site1172] | 9.53 ± 0.69 |
| TTATGAAAAAAATACTGTACACAATATGACGAAAGT [XGTACX_site2283] | 8.46 ± 0.42 |
| TTTTAAATAAATCATGCATGCACATATAATTATATT [TGCATGCA_site151] | 8.81 ± 0.72 |
| TATACGCATATTTTTACACACATATTTTTTCATATA [CACACA_site2546] | 8.2 ± 0.28 |
| TATCTCATTTGGAATTGTACTAACAGATACTTGTTT [XGTACX_site2672] | 7.54 ± 0.54 |
| TATATATAATATATATGTACATATGTATAATATTTA [XGTACX_site4400] | 7.67 ± 0.18 |
| CAAAAGAAGGTAAACACACACACACCCATACAAAAA [CACACA_site3765] | 8.1 ± 0.11 |
| ATTATTCGTTTTAAATGTACTCATATAAACGATAAA [XGTACX_site7866] | 7.8 ± 0.16 |
| ATATTTTTTTTCATTTGTACACATAAAATTATATAG [XGTACX_site8260] | 8.19 ± 0.46 |
| CATATTTACATTAAGTGTACTTATGAATATATATAC [XGTACX_site7962] | 7.8 ± 0.14 |
| ATAATATTTTATAATTGTACTTTTTATAAATATAAA [XGTACX_site1940] | 7.64 ± 0.21 |
| TAAATAAATCCACATACACACACGACGCTAGTATAT [CACACA_site1060] | 7.63 ± 0.35 |
| GATAGATAATATTTTAGTACATAAACAATTAAATAT [XGTACX_site4125] | 7.91 ± 0.44 |

| Sequence | gcPBM binding intensity (ln) |
| --- | --- |
| AATATTTTATTTTTTCTCATTAAAAATTTTTTTTTT [CACACA_negctrl_site364] | 7.46 ± 0.73 |
| TTATATTTTTTTTGTAGTACATTATAGAATACACAC [XGTACX_site969] | 8.39 ± 0.4 |
| TTAATAACAAAATAAACACACATATATAAATACACA [CACACA_site6849] | 7.91 ± 0.16 |
| TTTATTAAAACAAAATGTACACACATATAATTTAAT [XGTACX_site1637] | 7.65 ± 0.52 |
| TAAATTCTGTTTAAAAGTACAAATAATATTGTGCCT [XGTACX_site7805] | 7.55 ± 0.4 |
| AAATGTTGAAATGATACACACATATATATATATATA [CACACA_site2517] | 9.35 ± 0.54 |
| TGAAAGTGTATTAAAGTGCATATTATTTTATCTACC [GTGCAC_site9969] | 9.81 ± 0.24 |
| TTAATCTTCATAAAATGTACAGAAGATTGAATATTC [XGTACX_site6213] | 7.58 ± 0.49 |
| AAATCAAAAACGTTTACACACATTCTTATTTAAATA [CACACA_site790] | 8.04 ± 0.57 |
| TACAGAAATTTATATATATATATATATATATATATA [XGTACX_negctrl_site209] | 9.39 ± 0.54 |
| TACATATATTTTTTATGTACTTACTTGTGTGTTTAT [XGTACX_site5126] | 7.77 ± 0.17 |
| TGAGACATGAATGCAAGTACAAAAAGGAGAACAAAA [XGTACX_site6183] | 8.21 ± 0.7 |
| AAATTATATATAATAAATAATTTCTTTTTCTAAAAG [CACACA_negctrl_site8] | 7.22 ± 0.38 |
| AAAAAAAAAAAAAAAAGTACACACTTTTGCCTACAT [XGTACX_site6583] | 8.86 ± 0.49 |
| TTTTATAATTTCAAAGGATTCTTTAATATTATAAAT [CACACA_negctrl_site1812] | 7.33 ± 0.61 |
| AATAATTGCTAAAGGTGTACAATACGTATATAAGAA [XGTACX_site4910] | 8.9 ± 0.74 |
| TTTCACCATATAAACGTGCACACTACAAAAATATAT [CACACA_site2547] | 11.1 ± 0.35 |
| GGAAAGACAGTTCACAGTACCCAGTAACTCTACGGA [XGTACX_site2009] | 7.33 ± 0.76 |
| TTCATGCTTATATGTGCACACACAAAAGAAAAGAAA [CACACA_site1656] | 10.1 ± 0.27 |
| AAATAATAAATTATAACACACATATATATATATATA [CACACA_site4045] | 9.19 ± 0.28 |
| ATAATACAATTTATAACACACACACTATAATACATA [CACACA_site8338] | 7.98 ± 0.31 |
| TTATATAGGTCATTCATAAATACAGTTTTTAAAAAA [CACACA_negctrl_site1340] | 7.62 ± 0.48 |

| Sequence | gcPBM binding intensity (ln) |
| --- | --- |
| GCATAAATTATCATAACATAAATATAAAAATATAAT [GTGCAC_negctrl_site55] | 7.52 ± 0.41 |
| GATTATTTTATAAGTACACACATTTATATATAATAA [CACACA_site2573] | 7.96 ± 0.41 |
| AAAAAAAAAAGACACACACACACATAAATATAAATA [CACACA_site6215] | 7.69 ± 0.23 |
| ATTTATTTCACAAAAACATGCAGTTTGAAATTGCCA [TGCATGCA_site910] | 7.79 ± 0.56 |
| AATTCATTATATATACGTACATATTTCTGTATAAAA [XGTACX_site6371] | 7.94 ± 0.35 |
| TGTTATATGTTCAAATGTACAAATCATATACATGTT [XGTACX_site3192] | 7.5 ± 0.65 |
| GTGTACAGACACAAAATATATACATATATATATATA [CACACA_negctrl_site1796] | 9.24 ± 0.23 |
| AATATATAAACCGAACGTACATATTTTTTATACACC [XGTACX_site2121] | 8.23 ± 0.24 |
| ATTATTTTCTCATAGAGTACAAATGTTGTTGTTGTC [XGTACX_site1062] | 7.8 ± 0.38 |
| TATTTTCATAATAAAAAAAAATAATTTAAAAAATAT [CACACA_negctrl_site748] | 7.39 ± 0.76 |
| TGTGCACATAATTAGTGTACATTTTTTATTTAGACA [XGTACX_site317] | 10.3 ± 0.88 |
| AATGGCAAAATAGGCACACACACATATACATATATA [CACACA_site1058] | 8.1 ± 0.38 |
| CTTATTGATTTAAAAAGTACATATATGTATATACAC [XGTACX_site4072] | 7.95 ± 0.33 |
| AAAAAAAAAAAAAATACACACATATAAATATAAATA [CACACA_site6189] | 8.04 ± 0.46 |
| AGATTTAAATATCATACACACTTTATATATAATACA [CACACA_site4688] | 7.78 ± 0.59 |
| ATTAGAGAATCGTAACCCAAATGAACATACTTAAAT [GTGCAC_negctrl_site363] | 7.62 ± 0.6 |
| AATTATATTTGAAATACACACATAAAAATCATATAG [CACACA_site3468] | 7.61 ± 0.5 |
| GAGCGTAATCTATTTGCACACTTATTTGTTCTTAAA [CACACA_site673] | 10.1 ± 0.18 |
| GTGTATAATATAGGATGTACAATAAAACACCGATTG [XGTACX_site7429] | 8.28 ± 0.38 |
| ATAAAAACATAAACAAATCAAAAAAAAAAAAAAAAA [CACACA_negctrl_site13] | 8 ± 0.67 |
| TTGTTTATCAACAGCACACACAACAACAACAACAAC [CACACA_site458] | 8.74 ± 0.96 |
| ATGGATTATACGTGCACACATATATACCAATAAATA [CACACA_site4524] | 11.2 ± 0.22 |

Reference: the supplement of paper PMC11417369
